According to the supplement of paper PMC4466236:
Over roughly 33,000 sequences, “E-score (dimensionless, -0.5 to 0.5)” has its median near -0.058; the highest 2% begin near 0.35. The list shows a part of the results.

The sequences below were run on MvaT (assay: PBM 8-mer E-score (mean of HK and ME arrays) (E-score (dimensionless, -0.5 to 0.5)); higher = stronger relative binding preference; most listed sequences are background and not binding sites).
How it was run: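 Full-length P. aeruginosa MvaT, with glutathione S-transferase fused to its N-terminus (cloned into pTH6838 by isothermal assembly), was tested by protein binding microarray using a previously described protocol. Two universal double-stranded 60-mer arrays (ME and HK) were used, each with a constant 25-mer primer region and a variable 35-mer region covering all 8-mers. The rank-based 8-mer E-score (-0.5 to 0.5) is the mean of the two arrays, parsed with a custom Python script.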

Sequence | PBM 8-mer E-score
GGTTTAAA | 0.31
ACGTCGAA | -0.0575
CAGAAAGC | -0.192
ATTGTCTG | -0.0259
ATGGTCGG | -0.129
AGTACCGC | -0.108
GTGCACAA | 0.00028
CCGACCAC | -0.194
AGCGCAAT | 0.0659
CTGAATTA | 0.266
CTGCTAGC | -0.254
AAATTACT | 0.308
AACCAGAA | 0.0236
GAAAGTGA | 0.135
ACTAGGAC | -0.057
AACTCTGA | 0.116
AGATCTTG | -0.0529
GGGCAGAA | -0.0135
GCAGAGGC | -0.156
AAATAACG | 0.331
ATCGCCTG | -0.215
CGGGCGAG | -0.295
AGACGCAA | -0.111
CTCGTAGC | -0.0559
ATCTGTTC | 0.0393

Sequence | PBM 8-mer E-score
CACTTTAG | 0.0627
ATTGAGAC | 0.054
GGATGTAA | 0.234
GGATTCTA | -0.0779
ATCGCAGG | -0.166
AGCAGATC | -0.0539
ATATTTGC | 0.351
GAGCGTGC | -0.295
AGACTTGA | -0.116
GCATGCGC | -0.15
AGTACAAT | 0.277
AACACGCA | 0.143
CGTCTCCC | -0.168
TGTTGGAA | 0.136
CATGCCCC | -0.105
GGCTCAAC | -0.195
AGCGGGTA | 0.019
CCGAAATC | -0.112
CGTCTTAC | -0.157
CCCTTACG | -0.219
TGTGCAAA | 0.0191
CATATCTA | 0.122
AAACCGAG | -0.106
ATGACACG | -0.12
AGCGTCGC | -0.197

Sequence | PBM 8-mer E-score
AGGACGGA | -0.0832
GCATAATA | 0.339
AAGCAGGG | -0.135
CCGGGCGA | -0.287
AGTGTAAT | 0.308
CACTAAAC | 0.0791
AAACGGCG | 0.0664
ACAATTTG | 0.187
AAACTGTA | 0.136
GGTGGGGA | -0.301
CTGTCCAC | -0.113
AAATATAA | 0.442
CCACGAGG | -0.227
ACTACAGC | 0.0459
TCCGGAAA | -0.0987
CGCACCCG | -0.242
TCGACGAA | -0.14
GTTAGGAA | -0.0188
GCCAGCAC | -0.16
CAACTACC | 0.132
CGAGCGCA | -0.0636
TAGACGCA | 0.0756
ACTTAAAC | 0.244
ATGCCCGC | -0.155
CACATGAG | -0.0967

Sequence | PBM 8-mer E-score
CATGAAAG | 0.155
CATACGGA | 0.0185
CCGGGCGC | -0.153
AGCGAGGA | -0.132
GCGCAAAC | 0.0481
GCTGCAAC | -0.0708
ATGTGTTC | 0.0842
AGGGCAAA | 0.00349
CAGGCCCC | -0.325
CCAATATA | 0.367
CATTCCGG | -0.0284
GCCATTAC | -0.0881
AGGGCTTC | -0.321
ATCAAGAT | -0.0668
GGCCGATA | -0.0674
ACCTATCG | -0.108
TTCACGAA | 0.0127
ATGGCTTA | -0.0258
TACTTTAA | 0.422
ACAAGGGG | -0.104
AAGCTAGG | -0.267
CCCCAGTC | -0.137
CAGCAATA | 0.25
GCTATAGC | -0.0328
AATAAGCT | 0.231

Sequence | PBM 8-mer E-score
ACCACCAT | -0.0102
GCTTGTTA | 0.126
GCCCTTTA | -0.0688
CGTCTTGC | -0.0702
GATTTAAA | 0.395
AGGGGATG | -0.294
AAGTAGGC | 0.0924
AGATGCCG | -0.239
ACGATGGA | -0.117
GACTAGCC | -0.141
ACCGCGAG | -0.279
TTAGTAAA | 0.216
CGGAACCA | -0.158
CGGCCCAA | -0.186
ATTGATGA | 0.0305
CATCTTAC | 0.0767
ACAACTAT | 0.336
CCCATGCA | -0.23
TCTATAAA | 0.103
CGGATATC | 0.00792
ATAGTCGA | 0.152
ACACTAGA | -0.0048
AGCATAGG | -0.000532
CTAAGTTA | 0.352
AAGATCAT | 0.11

Sequence | PBM 8-mer E-score
CCTCTGAC | -0.327
CGAGCCAC | -0.175
CAACAACC | 0.0804
CGCGCAAG | 0.0254
TCCTCAGA | -0.142
ACATTTTG | 0.0944
ACGGTGTG | -0.0988
CCGAATAA | 0.188
CCACAAAG | -0.0754
ACCCACAT | 0.105
GTACGCTA | -0.0281
ACAGAAGA | 0.0811
AGAATCCG | -0.0107
AATCTTCT | 0.138
TCGGGAGA | -0.176
CAAGGAGG | -0.322
CTGTCTTA | 0.224
AGACACGG | -0.115
CGACTAGC | -0.196
ATGCCCCA | -0.194
AGCCGAGA | -0.121
GGCACCCC | -0.349
AACATCTG | 0.0268
CTGTGACA | -0.106
ATAGACGC | 0.122

Sequence | PBM 8-mer E-score
CCGCTGCA | -0.0655
ATCAGGAA | 0.112
CTGCGAAG | -0.175
AACAGAGC | 0.00269
GGACTGCC | -0.302
ATTAGCAC | 0.0511
CTACCCCC | -0.195
GAGCCGCA | -0.38
CCGACCGA | -0.228
TCGCGGAA | 0.0201
GAATCTGC | -0.188
GGACTATA | 0.155
AGGTACCG | -0.0332
CGAATTGC | 0.0872
GAGCTTGC | -0.211
ACAATTGG | 0.189
AACATTTC | 0.231
GACGTGGA | -0.112
AAGTAGCC | -0.0547
AGAGAGAC | -0.208
GCGAATTA | 0.194
GGTAATCA | 0.116
